Test results as given in PubChem BioAssay AID488969 (Vanderbilt High Throughput Screening Facility, 2010).
Over roughly 110,000 compounds, “z-score” has its median near -0.1; the highest 2% begin near 2. This is one part of the list. Activity calls are given as the source filed them.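 Rule for the calls: active = z-score in the third read window above 3 or below -3; inactive = the rest.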

These molecules were tested against Metabotropic glutamate receptor 8 (Rattus norvegicus) (UniProt P70579) (assay: rat mGluR8 modulators via GIRK flux, primary screen, cell-based, thallium flux, HTS (AID 488969)). Conditions: HEK293 rat mGluR8, GIRK (G protein-gated inwardly rectifying potassium channel) thallium flux, FluoZin2; at 10 µM; stronger effect = higher value; submaximal glutamate (EC20) added with thallium.
Sequence of UniProt P70579 (P70579 whole entry, looked up): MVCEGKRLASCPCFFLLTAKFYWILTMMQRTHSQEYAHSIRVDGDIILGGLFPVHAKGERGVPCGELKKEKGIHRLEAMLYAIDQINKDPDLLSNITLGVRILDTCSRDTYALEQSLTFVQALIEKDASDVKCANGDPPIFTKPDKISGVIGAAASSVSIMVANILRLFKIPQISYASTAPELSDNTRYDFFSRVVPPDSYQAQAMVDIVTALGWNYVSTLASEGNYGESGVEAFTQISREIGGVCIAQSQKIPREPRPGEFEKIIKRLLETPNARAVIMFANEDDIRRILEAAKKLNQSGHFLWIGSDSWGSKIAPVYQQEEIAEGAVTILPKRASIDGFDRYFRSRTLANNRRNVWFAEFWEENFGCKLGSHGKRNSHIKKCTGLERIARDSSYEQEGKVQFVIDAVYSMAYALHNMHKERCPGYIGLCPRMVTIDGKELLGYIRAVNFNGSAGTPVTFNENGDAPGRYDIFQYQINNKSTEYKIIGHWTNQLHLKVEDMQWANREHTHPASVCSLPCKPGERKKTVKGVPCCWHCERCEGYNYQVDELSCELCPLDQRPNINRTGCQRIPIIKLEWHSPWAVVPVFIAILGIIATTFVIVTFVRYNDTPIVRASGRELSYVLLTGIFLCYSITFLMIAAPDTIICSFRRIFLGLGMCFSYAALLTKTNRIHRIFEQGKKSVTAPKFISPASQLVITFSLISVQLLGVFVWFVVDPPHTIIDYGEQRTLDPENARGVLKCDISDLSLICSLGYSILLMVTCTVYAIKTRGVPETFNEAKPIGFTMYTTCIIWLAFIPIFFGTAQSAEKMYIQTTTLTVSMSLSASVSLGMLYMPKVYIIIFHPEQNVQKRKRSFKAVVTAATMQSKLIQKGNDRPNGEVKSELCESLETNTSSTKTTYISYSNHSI
In the case of `Cc1ccc(CN=C2Nc3ccccc3CS2)cc1`, the z-score is reported as -0.225. For `c1ccc(CN2C3=NCCCN3c3ccccc32)cc1`, the z-score was 2.93. For `COc1ccc2nc(-c3ccccc3)[nH]c2c1`, the z-score was -0.00455. `C=CCN1C(=O)NC2(O)C(=O)c3ccccc3C12O` (stereo unspecified) was tested, and the z-score was 0.455. With `Cc1ccc(C(=O)C(OC(=O)CNS(=O)(=O)c2ccccc2)c2ccccc2)cc1` (stereo unspecified) the z-score was -0.353. With `COc1cc(CNCCCN2CCOCC2)ccc1OCC(=O)Nc1cccc(C(F)(F)F)c1` the z-score was 0.352. In the case of `Cc1ccc2cc(CN(Cc3ccc4c(c3)OCO4)Cc3nnnn3Cc3ccco3)c(=O)[nH]c2c1C`, the z-score is reported as -0.474. Molecule `CCCCn1cc(C(C)(C)C)c(C#N)c1NC(C)=O` has a z-score of -0.17. Molecule `COC(=O)c1c(O)cc(C(C)(C)C)n(-c2ccc(F)cc2)c1=O` has a z-score of 0.192. Work on `Cc1ccc(S(=O)(=O)NCC(=O)OCc2nnc(-c3ccccc3)o2)cc1C` yielded a z-score of -2.83. With `Cc1ccc(-c2nnc(SCC(=O)N3CCN(c4ccccc4)CC3)o2)cc1` the z-score was -1.07. `CCNC(=O)COc1cc(C)c(Cl)c(C)c1` was tested, and the z-score was -0.203. For `Nn1c(COc2ccccc2)nnc1SCC(=O)O`, the z-score was 0.451. `CCC(=O)Nc1ccc(S(=O)(=O)Nc2ncccn2)cc1` showed a z-score of 0.251. Work on `O=C1CC(N2CCN(c3ccccc3)CC2)C(=O)N1c1ccc2c(c1)OCCO2` (stereo unspecified) yielded a z-score of -0.0551. With `NC(=S)Nn1c(CCC(=O)O)ccc1-c1ccccc1` the z-score was 0.124. For `COc1cc2c(N3CCOCC3)cc(O)c(CC(=O)Nc3ccccc3)c2cc1OC`, the z-score was 0.761. `O=[N+]([O-])c1ccc(N2CCN(C(=S)NC3CCCCC3)CC2)cc1` showed a z-score of -0.459. Work on `O=C(CSc1nnc(-c2ccncc2)n1Cc1ccco1)Nc1nccs1` yielded a z-score of 0.049. `CC1(C)Cc2ccccc2-c2nnc(-c3ccc(O)cc3)n21` was tested, and the z-score was -0.112. `COc1cc(-c2nnc(-c3ccccc3)o2)cc(OC)c1OC` gave a z-score of -0.974. Work on `Cc1ccc(/C=N/NC(=O)CC(=O)NCc2cccnc2)cc1` yielded a z-score of -0.106. `Cc1cc(=O)[nH]c2ccc(Cl)cc12` was tested, and the z-score was 0.699. `COc1ccc(N(CC(=O)N2CCc3ccccc3C2)S(C)(=O)=O)cc1` gave a z-score of 0.0342. `O=C(c1ccccc1)c1nc2ccccc2n(CCCn2c(=O)c(C(=O)c3ccccc3)nc3ccccc32)c1=O` showed a z-score of 1.05. Work on `Cc1ccc(-n2nnnc2SCC(=O)Nc2c(C)n(C)n(-c3ccccc3)c2=O)cc1` yielded a z-score of 0.269. Molecule `COc1ccc(OC)c(NC(=O)C2CC(C)=C(C)CC2C(=O)O)c1` (stereo unspecified) has a z-score of -0.452. `Cc1cc(-c2c(C)[nH]n(-c3ccccc3)c2=O)n(-c2ccccc2)n1` showed a z-score of -0.186. Work on `Cc1nc2ccccc2c2c1C(=O)N(Cc1cccnc1)C2=O` yielded a z-score of -0.146. `CCCc1cc(=O)[nH]c(SCc2ccc(C#N)cc2)n1` showed a z-score of -1.26. In the case of `O=C(NCc1ccccn1)c1ccc(Cl)s1`, the z-score is reported as 0.0151. `Cc1cc(N/N=C/c2ccc(O)c(C)c2O)nc(-c2ccccc2O)n1` was tested, and the z-score was -0.0442. Work on `CN1CCC(OC(=O)c2cccc(Br)c2)CC1` yielded a z-score of 0.151. For `O=C(COC(=O)C12CC3CC(CC(C3)C1)C2)NCCc1ccccc1`, the z-score was -0.177. For `O=C(N/N=C/c1ccc([N+](=O)[O-])s1)c1cccc(Br)c1`, the z-score was active: 6.96. In the case of `Cc1ccc(N=Nc2c(C)[nH][nH]c2=O)c(C)c1`, the z-score is reported as 0.772. `O=C(NCCCO)Nc1ccc2nc(-c3ccco3)c(-c3ccco3)nc2c1` gave a z-score of 0.111. In the case of `c1ccc(Cc2nnc3sc(-c4cccnc4)nn23)cc1`, the z-score is reported as -0.104. For `O=C(CCCN1C(=O)c2ccccc2C1=O)NCc1cccnc1`, the z-score was 0.675. `O=C(NN1C(=O)C2C(C1=O)C1C=CC2C12CC2)c1ccncc1` (stereo unspecified) gave a z-score of -0.195. With `C=CCNC(=O)c1cc(Cl)ccc1[N+](=O)[O-]` the z-score was -0.495. `CCCCc1nc2ccccc2c(C(=O)O)c1C` was tested, and the z-score was -0.453. Molecule `Cc1ccc(S(=O)(=O)Nc2ccc(Cl)cc2)cc1NC(=O)Cn1cnc2c1c(=O)n(C)c(=O)n2C` has a z-score of -0.355. Molecule `Cc1cccc2c(=O)n3c(nc12)CCCCC3` has a z-score of -0.287. Molecule `COc1ccc2[nH]c3nc(SCC(=O)NNC(=O)c4ccc(OC)c(OC)c4)nnc3c2c1` has a z-score of 0.0876. In the case of `CC1CCCN(CCC(=O)Nc2ccc3c(c2)CCC3)C1` (stereo unspecified), the z-score is reported as 0.205. `CCOC(=O)c1cc2ccccc2n1CCN(CC)CC` gave a z-score of 0.431. `CC(=O)N1CCc2cc(S(=O)(=O)Nc3ccccc3N3CCN(C)CC3)ccc21` gave a z-score of 0.539. With `CN(CCO)c1cc(N2CCN(C(=O)c3ccco3)CC2)c2nonc2c1[N+](=O)[O-]` the z-score was -0.172. For `CCOc1ccc(OCC)c(NC(=O)Nc2ccc3c(c2)N(C)C(=O)CS3)c1`, the z-score was -2.61. `Cc1ccc(S(=O)(=O)N2CCOCC2)cc1C(=O)Nc1nc(-c2cccnc2)cs1` gave a z-score of 0.271. `CCN(CC)S(=O)(=O)c1cc(C(=O)OCC(=O)Nc2cccc(C)c2C)ccc1F` gave a z-score of -1.28. `CCSc1nnc(NC(=O)C2Cc3ccccc3CN2C(=O)c2ccco2)s1` (stereo unspecified) gave a z-score of 0.124. `CSc1ccc(Cl)c(C(=O)NCCOc2ccccc2)c1` gave a z-score of 0.236. `COC(=O)c1ccc(N(C(=O)c2ccco2)C(C(=O)NC2CCCC2)c2ccco2)cc1` (stereo unspecified) showed a z-score of -0.539. Molecule `Cn1c(CSc2nc3ccc(Br)cc3[nH]2)nc2ccccc21` has a z-score of -0.946. `Cc1cc(NC(=O)c2cc(-c3cccs3)nc3ccccc23)no1` showed a z-score of 0.906. `CCCc1ccc(/C=C2\C(=O)c3ccccc3C(O)=C2C(=O)OCC)cc1` was tested, and the z-score was -0.286. Molecule `CC(=O)N1CCc2cc(C(=O)CN3CCN(c4cccc(Cl)c4)CC3)ccc21` has a z-score of -0.422. Molecule `Cc1nc(C)c(C(=O)C2=C(O)C(=O)N(CCN(C)C)C2c2ccccc2)s1` (stereo unspecified) has a z-score of 0.215. `COCC(=O)N(C)c1nnc(-c2cnccn2)s1` gave a z-score of 0.018. `N#C/C(=C\C1CC2C=CC1C2)c1nc2ccccc2[nH]1` (stereo unspecified) was tested, and the z-score was -0.254. `CCOc1ccc(NC(=S)NC(=O)/C=C/c2ccc(C)cc2)c([N+](=O)[O-])c1` showed a z-score of 0.317. With `CCOC(=O)c1c(C)[nH]c(C(=O)C(C)Sc2ccc(Cl)cc2)c1C` (stereo unspecified) the z-score was -0.12. `CC1CCC(=C(C#N)c2nc(-c3cc4ccccc4oc3=O)cs2)CC1` (stereo unspecified) gave a z-score of -1.32. Work on `COc1ccc(OCC(=O)O/N=C(\N)Cc2ccc(Cl)cc2Cl)cc1` yielded a z-score of 0.353. In the case of `COc1ccc(/C=N/NC(=O)COc2cccc3ccccc23)c(C(=O)O)c1OC`, the z-score is reported as -0.209. In the case of `O=C(CSc1ccsc1[N+](=O)[O-])N1CCN(c2ccccc2)CC1`, the z-score is reported as -0.247. `CCNC(=S)NNC(=O)c1ccc(OC(F)F)cc1` showed a z-score of -0.194. With `CC(=O)Nc1cc(NC(=O)C2C3C=CC(C3)C2C(=O)O)ccc1Cl` (stereo unspecified) the z-score was -0.156. `CCOC(=O)CSc1nnc(CSc2nc3sc4c(c3c(=O)[nH]2)CCC4)n1-c1ccccc1` showed a z-score of -0.572. Work on `COc1ccc(C)cc1NC(=O)c1cc2ccccc2cc1OCC(=O)NCc1ccco1` yielded a z-score of -0.19. `CC(=O)c1cccc(NC(=O)CCC2CCCC2)c1` was tested, and the z-score was -0.34. Molecule `O=C(CSCc1c(Cl)cccc1Cl)Nc1ccc2c(c1)OCO2` has a z-score of -0.187. Work on `COc1ccc(C2C(C#N)=C(/N=C/N3CCOCC3)OC3=C2C(=O)CC(C)(C)C3)cc1OC` (stereo unspecified) yielded a z-score of 0.0234. `Cc1ccc(C(=O)NCc2ccco2)cc1S(=O)(=O)Nc1cccc(Cl)c1` was tested, and the z-score was 0.648. `COc1ccc(N2C(=S)N(C(=O)c3ccccc3)C(=Nc3ccccc3)C2=Nc2ccccc2)cc1` showed a z-score of -1.23. `CCOC(=O)C1=C(C)NC(C)=C(C(=O)OCC)C1c1cc(N)ccc1OC(F)F` gave a z-score of 0.589. `COC(=O)Cn1c(CN2CCc3ccccc3C2)nc2c1c(=O)n(C)c(=O)n2C` was tested, and the z-score was active: 5.81. `Oc1ccccc1-c1nnc(-c2ccc(C(F)(F)F)cc2)o1` showed a z-score of 1.18. Molecule `OC(CC1CC12c1ccccc1-c1ncccc12)(c1ccccc1)c1ccccc1` (stereo unspecified) has a z-score of -0.549. Work on `O=C(NCCN1CCNCC1)c1ccccn1` yielded a z-score of -0.233. `COc1cc(CNC2CCCCCC2)cc(OC)c1` gave a z-score of 0.372. Molecule `O=C(COc1ccc(S(=O)(=O)N2CCCCC2)cc1)NC1CCCCC1` has a z-score of -0.0527. `C=CCNC(=O)/C(C#N)=C\c1cc(Cl)c(OCC)c(OC)c1` showed a z-score of -0.355. With `COC(=O)Nc1ccc(S(=O)(=O)N2CCCCCC2)cc1` the z-score was 0.0534. `CCNc1c(NC(C)=O)c(=O)oc2ccccc12` gave a z-score of -0.177. `Cc1sc2nc(CN3CCC(C)CC3)nc(Cl)c2c1C` was tested, and the z-score was -0.57. Work on `Cc1nc(-c2cn[nH]c2-c2ccc(O)cc2O)cs1` yielded a z-score of -0.501. Work on `Cc1nn(C)cc1C(=O)NNC(=S)Nc1ccc(Cl)cc1` yielded a z-score of 0.0234. With `O=C(CCN1CCN(c2ccc(F)cc2)CC1)Nc1ccccc1F` the z-score was -0.192. Molecule `O=C(NCCc1ccccc1)c1ncn[nH]1` has a z-score of 0.205. With `Cc1ccc(-n2nc(C(=O)c3ccccc3)n3c(=O)cc(-c4ccccc4)nc23)cc1` the z-score was 1.02. `O=C1C(=O)c2ccc(-c3ccccc3)cc2-c2ccccc21` showed a z-score of -0.359. Molecule `CCS(=O)(=O)c1ccc(S(=O)(=O)CC)s1` has a z-score of -0.137. For `O=C(NC1(C(F)(F)F)N=C2SCCN2C1=O)c1ccco1` (stereo unspecified), the z-score was -0.349. `CC(C(=O)OCC(=O)Nc1ccc(S(=O)(=O)N2CCCCC2)cc1)N1C(=O)c2ccccc2C1=O` (stereo unspecified) was tested, and the z-score was 0.0234. `COc1ccc(CN(C)Cc2ccccc2)c(OC)c1OC` gave a z-score of -0.0272. With `CC(c1ccccc1)C(CC(=O)O)C(=O)NC1CCCCC1` (stereo unspecified) the z-score was -0.131. For `COC(=O)c1cc(Br)c(=O)n(CCC2=CCCCC2)c1`, the z-score was -0.943. In the case of `O=C(Cc1sc(-c2ccccc2)nc1-c1ccccc1)Nc1ccc(Cl)cc1`, the z-score is reported as 0.0651. Work on `O=C(NCc1ccc2c(c1)OCO2)c1ccc(CSCc2ccc(Cl)cc2)o1` yielded a z-score of -0.191. `CC(=O)C1=C(O)C(=O)N(C2CCCCC2)C1c1ccccc1` (stereo unspecified) was tested, and the z-score was -0.691. `C=CCC(C#Cc1ccc(C)cc1)N(CC)CC` (stereo unspecified) gave a z-score of -0.418. With `COc1ccc(S(=O)(=O)NNC(=O)c2cc3ccccc3o2)cc1` the z-score was 0.198. In the case of `Cc1nc2c(-c3ccc(F)cc3)c(C)nn2c(C)c1CCC(=O)NCCN1CCOCC1`, the z-score is reported as -0.0995. `Cc1sc2c(c1C)c(=O)n(-c1cccc(C(F)(F)F)c1)c(=O)n2CC(=O)NCc1ccco1` was tested, and the z-score was -0.979. For `C=CCSc1nnc2c(n1)OC=Nc1ccc(Br)cc1-2`, the z-score was -0.557. With `CC(C)(C)C1CCC2(CC1)NC(=S)N(c1ccccc1)N2` (stereo unspecified) the z-score was 0.0264. For `Cc1cccc(OCCOCCN2CCNCC2)c1C`, the z-score was 0.208. `Cc1ccc(Oc2c(C(N)=O)cc([N+](=O)[O-])cc2[N+](=O)[O-])cc1` showed a z-score of 0.52.
